# Test results from the supplement of paper PMC3334620.
# Over roughly 33,000 sequences, “E-score (-0.5 to 0.5)” has its median near -0.035; the highest 2% begin near 0.35. The list shows a part of the results.
# Biological target: T1, Pdr3 (UniProt P33200)
# T1 sequence: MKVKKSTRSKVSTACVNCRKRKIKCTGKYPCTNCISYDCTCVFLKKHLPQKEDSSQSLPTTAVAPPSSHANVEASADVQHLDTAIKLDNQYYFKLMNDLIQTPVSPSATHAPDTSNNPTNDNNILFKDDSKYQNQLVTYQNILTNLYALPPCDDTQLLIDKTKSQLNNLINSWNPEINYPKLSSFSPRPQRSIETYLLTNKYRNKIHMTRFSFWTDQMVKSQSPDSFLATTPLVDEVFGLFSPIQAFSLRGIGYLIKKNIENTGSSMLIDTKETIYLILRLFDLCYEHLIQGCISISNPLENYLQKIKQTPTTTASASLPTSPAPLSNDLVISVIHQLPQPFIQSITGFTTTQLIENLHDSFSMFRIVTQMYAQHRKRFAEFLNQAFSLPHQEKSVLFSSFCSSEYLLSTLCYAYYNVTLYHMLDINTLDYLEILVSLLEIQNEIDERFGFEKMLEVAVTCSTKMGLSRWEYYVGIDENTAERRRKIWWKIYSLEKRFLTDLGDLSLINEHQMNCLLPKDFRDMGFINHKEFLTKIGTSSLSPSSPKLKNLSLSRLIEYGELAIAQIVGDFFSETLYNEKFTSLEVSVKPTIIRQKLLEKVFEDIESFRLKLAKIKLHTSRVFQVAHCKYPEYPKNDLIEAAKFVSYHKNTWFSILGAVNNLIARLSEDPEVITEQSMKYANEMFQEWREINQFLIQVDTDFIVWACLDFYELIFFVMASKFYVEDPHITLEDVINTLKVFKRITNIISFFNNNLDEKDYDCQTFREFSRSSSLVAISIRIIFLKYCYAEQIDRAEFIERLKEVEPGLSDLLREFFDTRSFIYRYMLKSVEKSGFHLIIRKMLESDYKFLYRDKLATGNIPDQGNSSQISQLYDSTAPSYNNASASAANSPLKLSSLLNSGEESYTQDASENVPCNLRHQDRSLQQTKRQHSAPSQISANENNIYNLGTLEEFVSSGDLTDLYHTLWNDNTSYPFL
# Assay: PBM E-score (8-mer binding enrichment) (E-score (-0.5 to 0.5)); higher = stronger / more preferred TF binding; most listed sequences are background and not binding sites
# Conditions: protein concentration: 200 nM; construct: GST-full length
# Summary of the method: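 E-scores (a modified Wilcoxon-Mann-Whitney statistic) were assigned by the Universal PBM Analysis Suite to every ungapped eight-base word pooled with its reverse complement. The input came from universal all-10-mer Agilent arrays made double-stranded by primer extension and probed with GST-tagged yeast transcription factors at about 100-200 nM. Fluorescent anti-GST detected bound protein, and masliner normalised the scans.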
row,Sequence,PBM E-score
1,ATGTGTTA,-0.168
2,CTCCCCAG,-0.162
3,TAGGTGAA,0.016
4,CTAGGGCA,-0.263
5,AGTCTCGC,-0.065
6,AACGGCAA,0.0283
7,GCGACCAA,0.177
8,CGCGTAAA,0.0173
9,GTAGGAAC,-0.07
10,GAATACCA,0.00976
11,AAAGGGGC,-0.135
12,AAGCCGGG,0.262
13,TCCCTACA,-0.0653
14,CGTTGTGA,-0.03
15,CCTCTCAC,-0.203
16,CCCAAGTC,-0.154
17,CACAGAAA,0.0151
18,GACTATGA,-0.132
19,CGGCATAA,0.16
20,CTCAGGGC,-0.00924
21,CTGCCTCC,0.00485
22,TTAACCAA,-0.184
23,GAAACGCA,-0.0109
24,ACCTTGGC,-0.0857
25,CAAACATG,-0.204

row,Sequence,PBM E-score
1,CTTGGTTC,0.148
2,ACGTCGTC,0.0431
3,CACAATAC,0.00132
4,AGCCAAAA,-0.171
5,AGTTCGTA,0.0718
6,TGCGTCCA,-0.0375
7,CTTCCGCA,0.307
8,ACATATCA,-0.00498
9,CTGGAAAG,-0.159
10,CGAGTGGC,-0.0326
11,CTATGGAA,-0.0147
12,ATACGTTA,-0.185
13,AACGATAG,-0.102
14,CTAGCCCC,-0.259
15,ATCAGAGC,0.0756
16,GCACTAGA,-0.19
17,CCTCGTGC,0.00448
18,CCTCGGAA,0.442
19,CAAGCGAC,-0.00572
20,GCTTAGCA,-0.0836
21,ACTCATAG,-0.0938
22,GATGAACA,-0.00549
23,CTTGTTTC,-0.0483
24,ATCTTCAT,0.0898
25,ACCCTCTA,-0.175

row,Sequence,PBM E-score
1,ACATGGAT,-0.0656
2,AACTGCGT,-0.252
3,CATCTTTA,-0.128
4,AAAATTAT,0.179
5,ATAGTCCC,-0.00549
6,AACGACAC,-0.161
7,ATCCGGAA,0.464
8,GCGCGGCA,0.237
9,TACCGTAA,-0.0723
10,GCTATCGA,-0.0824
11,AAAGGGTC,0.0018
12,AGGGCACG,-0.0543
13,GTAGTCCA,-0.225
14,CTCCTCAC,-0.154
15,CTCAATAA,-0.208
16,AGTCCAAT,0.00894
17,TCAACACA,-0.0355
18,CTTGTAGA,-0.27
19,CGAACTAG,0.0329
20,CAGTTTCA,-0.19
21,CGTCTATC,-0.139
22,GTACCCAC,0.0632
23,CATAGTAC,-0.0189
24,GAACCCTC,-0.0665
25,GGTTCCGA,0.476

row,Sequence,PBM E-score
1,CTTCCGCC,0.336
2,ATCATTGA,-0.0198
3,GTATGACA,-0.109
4,ATGAGAGC,-0.0519
5,GAACTTAA,-0.0459
6,TTAACGAA,0.0378
7,AGGCACGC,0.049
8,GTTTGCTA,-0.0539
9,CCACTATC,-0.0446
10,GTAACATA,0.0403
11,AGCAGTGC,-0.146
12,TTGCGCAA,-0.0494
13,TAGGCGGA,0.258
14,CGGTGGGC,0.0391
15,CAACCTTG,-0.0444
16,AATTTACT,-0.0427
17,TAGGGTCA,-0.214
18,ACATCGAC,-0.101
19,AACTTCGA,-0.0768
20,CTCAGATA,-0.00418
21,AGAACGTG,0.0682
22,AATAACAT,0.113
23,CTTATTGC,-0.174
24,AAGTATGT,-0.225
25,CAGGCGCA,-0.00764

row,Sequence,PBM E-score
1,AGGCGCAA,0.0694
2,TTCCGCAA,0.404
3,ATCCGAAG,0.22
4,ATATCCCG,0.357
5,CCCGGACG,0.223
6,ATCACCAA,-0.112
7,AGACCGCC,0.0729
8,CGCATTTA,0.0284
9,CCCAGAGG,-0.225
10,ATCCCACC,0.266
11,CACATGAA,-0.0897
12,ATAAGAAC,0.139
13,TCTTCGAA,-0.191
14,CTAAGAAC,0.165
15,AACTTATA,0.0751
16,ATCAGCGG,0.364
17,CAGCACGG,0.23
18,ACGAGTAG,0.0576
19,AGGCTCTC,-0.179
20,CCCTAGTC,-0.343
21,CCACCGTA,-0.103
22,GAAGGCTC,-0.105
23,CTGACGCA,-0.18
24,GATTAGCC,-0.0437
25,CAATGCCG,0.263

row,Sequence,PBM E-score
1,TATTCTCA,-0.0987
2,AAATACGG,0.0148
3,AATTTGCC,0.0572
4,CTTCGACC,0.054
5,ATACCAAT,0.0683
6,CCTGAGCG,-0.147
7,TACGTCAA,-0.113
8,ATTCCTTA,-0.115
9,ACCATTAA,0.197
10,AACCCAGA,-0.0664
11,AACTAATG,0.0081
12,CTGTGCAA,-0.105
13,CCGTGACC,0.123
14,AACGGTGT,-0.139
15,GCAGTGAA,0.067
16,CAGTACTC,-0.146
17,CACACATA,-0.104
18,GTAGAGTA,-0.145
19,GGTCACAA,-0.169
20,GACTAATC,0.131
21,GTCCCAAC,-0.15
22,CAAGGTGC,-0.00425
23,ACTAATTC,0.07
24,AACCTGGC,-0.0888
25,CGAGATGA,0.017

row,Sequence,PBM E-score
1,CCCCTGGC,-0.0768
2,CAGTGAAG,-0.214
3,ATCTTGGG,0.00443
4,AGTGATTC,-0.0203
5,ACGGTAAT,0.0577
6,ACATCAGA,-0.0935
7,AAAGGCCC,-0.153
8,AGCATTCA,-0.0565
9,GATGCATC,0.222
10,ATCCATAA,0.12
11,CATTTAAC,-0.26
12,CCCAAGGA,-0.147
13,CTCGCCAC,-0.0355
14,GTATCGAC,0.102
15,ATTCACCG,0.254
16,CAACGGGG,0.0538
17,CCGTCAAG,0.195
18,AACAATAA,0.226
19,ATCACCAT,0.0336
20,AAACGCCG,0.149
21,AGTCTAAC,-0.166
22,ACCTCTGA,0.045
